# Laboratory results reported in paper PMC4336329 (PLoS ONE, 2015).
# Hit rate of the full screen: of about 310,000 compounds, about 14,000 (4.5%) showed an effect of 50% or more. The effect is printed as a negative number. The list shows a part of the results.
# Molecular target: human ether-à-go-go-related gene (hERG) potassium channel (human, UniProt Q12809)
# Assay: primary screen, population patch clamp on CHO cells stably expressing hERG
# 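Further: peak tail current of the secondary pulse compared with the same well before compound.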
# Chain of human ether-à-go-go-related gene (hERG) potassium channel (Q12809 whole entry, looked up): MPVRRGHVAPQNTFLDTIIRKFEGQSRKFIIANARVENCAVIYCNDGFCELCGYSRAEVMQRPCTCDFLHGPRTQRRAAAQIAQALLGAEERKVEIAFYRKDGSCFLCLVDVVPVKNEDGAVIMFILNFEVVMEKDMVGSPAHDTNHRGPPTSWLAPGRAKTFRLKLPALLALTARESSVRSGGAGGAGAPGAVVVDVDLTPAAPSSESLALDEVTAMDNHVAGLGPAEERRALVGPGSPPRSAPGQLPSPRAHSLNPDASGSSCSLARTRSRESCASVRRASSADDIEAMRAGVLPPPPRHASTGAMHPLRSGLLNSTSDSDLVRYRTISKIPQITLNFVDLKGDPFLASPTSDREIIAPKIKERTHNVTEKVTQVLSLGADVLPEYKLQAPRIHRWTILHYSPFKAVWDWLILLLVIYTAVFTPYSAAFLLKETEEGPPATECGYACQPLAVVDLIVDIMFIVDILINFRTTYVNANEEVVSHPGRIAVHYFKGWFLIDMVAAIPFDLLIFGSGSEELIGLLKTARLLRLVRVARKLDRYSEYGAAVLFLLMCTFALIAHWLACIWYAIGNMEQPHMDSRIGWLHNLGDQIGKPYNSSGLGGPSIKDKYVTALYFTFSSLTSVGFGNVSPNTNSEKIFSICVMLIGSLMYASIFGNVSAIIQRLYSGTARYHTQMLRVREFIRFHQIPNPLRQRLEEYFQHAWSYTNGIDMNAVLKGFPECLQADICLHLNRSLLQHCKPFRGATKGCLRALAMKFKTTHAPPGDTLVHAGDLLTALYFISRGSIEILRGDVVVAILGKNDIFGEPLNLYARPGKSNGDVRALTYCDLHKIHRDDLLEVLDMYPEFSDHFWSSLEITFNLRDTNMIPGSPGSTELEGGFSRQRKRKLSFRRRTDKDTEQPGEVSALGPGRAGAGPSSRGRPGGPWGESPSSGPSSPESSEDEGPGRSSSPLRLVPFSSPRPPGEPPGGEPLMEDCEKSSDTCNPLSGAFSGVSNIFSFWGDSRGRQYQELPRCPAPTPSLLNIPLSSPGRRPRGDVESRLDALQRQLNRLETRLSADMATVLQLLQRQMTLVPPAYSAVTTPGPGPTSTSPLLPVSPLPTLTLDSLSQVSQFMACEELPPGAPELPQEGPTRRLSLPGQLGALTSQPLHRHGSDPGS
row,Compound,"hERG current change (%, negative = inhibition) at 10uM"
1,COc1cc(NC(=O)COC(=O)/C=C/c2ccccc2Cl)cc(OC)c1,9.31%
2,COC(=O)CSc1nsc(SCC(=O)OC)n1,2.1%
3,COc1ccc(Br)cc1C1CC(=O)C(C)C(c2cc(Br)ccc2OC)N1 (centres unmarked),19.5%
4,c1ccc(-c2ncnc3nc4n(c23)CCC4)cc1,10.3%
5,COc1ccc(-c2sc3cc(OC)c(OC)cc3c2C#CCCO)cc1,7.26%
6,Cc1ccccc1N1CCN(Cc2ccc(Br)o2)CC1,-13.7%
7,Cc1[nH]c2ccccc2c1C(=O)C(=O)N1CC=C(c2ccccc2)CC1,-11.3%
8,COc1ccc(CN(C(=O)CN2C(=O)NC3(CCC(C)CC3)C2=O)C(C)Cc2cccs2)cc1 (centres unmarked),-68.7%
9,Cc1c(N/C(=N/S(=O)(=O)c2cc([N+](=O)[O-])ccc2Cl)c2ccccc2)c(=O)n(-c2ccccc2)n1C,-22%
10,Cc1ccc(C)c(N2CCN(C(=O)CCn3c(=S)[nH]c4cc5c(cc4c3=O)OCO5)CC2)c1,1.11%
11,COc1ccc(C(C)=O)cc1COC(=O)CNC(=O)c1ccc(F)cc1,-4.66%
12,Cc1ccc(-n2c(CNc3ccc(F)cc3)nnc2SCC(=O)O)cc1,11.2%
13,CC1(C)CC(=O)C2=C(C1)N1CCCCC1CC2=O (centres unmarked),8.13%
14,C[C@H](NC(=O)CCCn1nnc2ccccc2c1=O)C(=O)O,5.74%
15,CCc1ccc2c(CN3CCc4ccccc43)cc(=O)oc2c1,5.25%
16,CCN1C(=O)/C(=C\N(C)C)NC1=S,19%
17,Cn1c(=O)n(CC(=O)O)c(=O)c2c1nc1n2CCCN1CCc1ccccc1,13.6%
18,CC(C)N=C(NS(=O)(=O)NC(=O)c1ccccc1)c1ccccc1,2.42%
19,O=C(CN1c2ccccc2Sc2ccccc21)N/N=C/c1ccc(Cl)cc1,-9.59%
20,N#Cc1ccc(NC(=O)CCc2nc3ccccc3s2)cc1,1.87%
21,COc1ccc(S(=O)(=O)NCCc2c[nH]c3ccccc23)cc1OC,11.4%
22,CCOc1cccc(OCCOCCNC(C)(C)C)c1.O=C(O)C(=O)O,3.71%

row,Compound,"hERG current change (%, negative = inhibition) at 10uM"
1,CC(C(c1cccs1)c1c(N)n(C)c(=O)n(C)c1=O)[N+](=O)[O-] (centres unmarked),4.02%
2,CCOc1cc(N2CCOCC2)c(OCC)cc1NC(=O)COc1cccc2cccnc12,6.14%
3,CSc1nc2n(n1)C(c1cccc(F)c1)C(C(=O)Nc1ccc(C)cc1C)=C(C)N2 (centres unmarked),-0.769%
4,COc1ccc(S(=O)(=O)N(CC(=O)Nc2ccc3c(c2)OCO3)c2ccccc2OC)cc1,18.5%
5,COc1ccc(CCNC(=O)C2CC(c3ccc([N+](=O)[O-])cc3)=NO2)cc1 (centres unmarked),-61.6%
6,CC(=O)c1c(NCCc2ccccc2)cc(C)oc1=O,-18%
7,COc1ccc(C(=O)Nc2c3c(nn2-c2cccc(Cl)c2)CS(=O)C3)cc1 (centres unmarked),-25.6%
8,Cc1ccc2c(c1)nnn2C1CCN(CC(=O)N(c2ccccc2)c2ccccc2)CC1,11.4%
9,Cc1ccnc(N2C(=O)c3ccccc3C2Nc2ccc3c(c2)OCCO3)c1 (centres unmarked),-5.75%
10,CC1=C(C)CC(C(=O)Nc2nc(-c3ccc(C)cc3C)c(C)s2)C(C(=O)O)C1 (centres unmarked),4.6%
11,COc1ccccc1OCC(=O)Nc1ccc(S(=O)(=O)N(C)c2ccccc2)cc1,17.8%
12,CCOc1ccccc1C(=O)N1CCC(n2nnc3cc(C)ccc32)CC1,-47.4%
13,COc1ccc(C2/C=C\CN(S(=O)(=O)/C=C/c3ccccc3)[C@H](Cc3ccccc3)C(=O)N2Cc2ccc(F)cc2)cc1 (some centres unmarked),8.05%
14,CO[C@H]1O[C@H](C)[C@@H](O)C[C@H]1NC(=O)OCc1ccccc1,22.6%
15,O=C(O)CS(=O)(=O)c1ccc(C(F)(F)F)cn1,16.8%
16,Cc1cc(S(=O)(=O)Nc2cccc(O)c2)c(C)s1,4.94%
17,CSc1ccc(/C=N/NC(=O)CN2CCN(Cc3ccc(C)cc3)CC2)cc1,-63.2%
18,CC(C)(C)c1csc(NC(=O)c2c(F)c(F)c(F)c(F)c2F)n1,-63.9%
19,CCCN(CCC)CCCNC(=O)C1CCC(CNS(=O)(=O)c2cccc3nsnc23)CC1 (centres unmarked),-10.1%
20,Cc1cccc(NC(=O)COC(=O)c2ccc(C)c(S(=O)(=O)N3CCCCC3)c2)c1,-9.99%
21,COCCNC(=O)C(c1cccs1)N(Cc1ccccc1)C(=O)Cn1nnc2ccccc21 (centres unmarked),-8.87%
22,CCOC(=O)NC(=O)/C(C#N)=N\Nc1cccc(Cl)c1,17.9%

row,Compound,"hERG current change (%, negative = inhibition) at 10uM"
1,COc1cccc(N2CC(=O)Nc3c(oc4nc(-c5ccccc5)cc(C)c34)C2=O)c1,1.92%
2,COc1ccccc1CNC(=O)N1CCN(S(=O)(=O)c2ccc(Cl)cc2)CC1,20.7%
3,CC1CCN(S(=O)(=O)c2ccc(NC(=O)CN3CCOCC3)cc2)CC1,-13.9%
4,CC(=O)N/C(=C/c1ccc2c(c1)OCO2)C(=O)NCC(=O)O,7.09%
5,CC(=O)NC(c1cccc([N+](=O)[O-])c1)c1c(OC(C)=O)ccc2ccccc12 (centres unmarked),-7.72%
6,NC(=O)c1nsc(C(=O)N(c2cccc(O)c2)C(C(=O)NC2CCCC2)c2ccc(Cl)cc2)c1N (centres unmarked),2.73%
7,CC1CC(C)CN(c2oc(-c3ccco3)nc2C#N)C1 (centres unmarked),0.193%
8,CCc1ccc2nc(N(CCN(C)C)C(=O)/C=C/c3cccs3)sc2c1.Cl,7.53%
9,CC1CCN(S(=O)(=O)c2ccc(C(C)C)cc2)CC1,18.3%
10,Cc1ccc(C[n+]2cc(-c3ccc(Cl)cc3)n3c2CCC3)cc1.[Cl-],-51.3%
11,O=C1CC(NS(=O)(=O)c2cccnc2)CN1c1cccc(F)c1 (centres unmarked),9.51%
12,CN(c1ccc(C(=O)N2CCc3ccccc3C2)cc1)S(C)(=O)=O,-12.4%
13,O=C(CN1C(=O)c2ccccc2S1(=O)=O)NCc1ccc(F)cc1,13.4%
14,N#CCc1ccc(NS(=O)(=O)c2cccs2)cc1,-11.5%
15,NCCCC[C@H]1CN=C(N)N1CCCCC1CCCCC1,-3.84%
16,Cc1c(C(=O)Nc2ccc(S(=O)(=O)NCC3CCCO3)cc2)cccc1[N+](=O)[O-] (centres unmarked),-20.3%
17,COc1ccccc1/C=N/OC(=O)c1ccc(C)cc1,12.6%
18,CCN(Cc1ccccc1)C1CCN(Cc2ccccc2)CC1,-14.9%
19,CC(C)C1CC(C(=O)Nc2ccccc2)C(=O)O1 (centres unmarked),1.05%
20,COc1ccc(N2CCN(C(=O)c3cccc(S(=O)(=O)N4CCOCC4)c3)CC2)cc1,3.68%
21,CCOC(=O)c1cc(NC(=O)c2ccc(OC)cc2)c(=O)oc1-c1ccccc1,-5.04%
22,COc1cc(/C=N/N2CCN(Cc3ccc(Cl)cc3)CC2)cc(Br)c1O,3.3%

row,Compound,"hERG current change (%, negative = inhibition) at 10uM"
1,CC12CC3CC(C)(C1)CC(C(=O)NC(=S)N1CCCCC1)(C3)C2,6.36%
2,O=C1CNC(=S)N1Cc1ccc(Cl)cc1,0.829%
3,Cc1ccc(-c2noc(CCC(=O)Nc3cccc(C#N)c3)n2)cc1,-13.8%
4,O=C(Nc1ccc(S(=O)(=O)Nc2ncccn2)cc1)c1ccccc1NS(=O)(=O)c1ccc(F)cc1,9.91%
5,COc1cccc(-c2noc(C3CCCN(S(=O)(=O)c4cccc(Cl)c4C)C3)n2)c1 (centres unmarked),-4.59%
6,CN(Cc1ccc(F)cc1)C(=O)c1ccc(NS(=O)(=O)c2ccccc2)cc1,-34.3%
7,Cn1c(=O)n(Cc2ccco2)c(=N)c2c3c(sc21)CCCC3,-31.4%
8,COc1ccc(CCNS(=O)(=O)c2ccc(Cl)s2)cc1OC,-4.35%
9,Cc1ccc2c(CSc3nc4nc(C)cc(C)n4n3)cc(=O)oc2c1,-21.8%
10,CCc1cc(C(=O)N=Nc2c(O)[nH]c3c(Br)cc(Br)cc23)c2ccccc2n1,16.1%
11,CCCCCC(=O)Nc1ccc(C2C(=O)c3ccccc3C2=O)cc1,8.97%
12,COc1ccccc1CNCC(O)Cn1c2ccccc2c2ccccc21 (centres unmarked),-45.5%
13,CC1CN(C(=O)CCCN2C(=O)c3ccccc3C2=O)CC(C)O1 (centres unmarked),14.3%
14,CC[C@@H](C)[C@H](NS(=O)(=O)c1ccc(C)cc1)C(=O)N1CCC(C(=O)NCC(=O)O)CC1,3.83%
15,CCOC(=O)c1cc2cc3ccccc3cc2oc1=O,-1.57%
16,CN1/C(=C\C=C2/C(=O)Oc3ccccc3C2=O)C(C)(C)c2ccccc21,3.09%
17,Cc1ccc(N2CC(C(=O)N3CCCCCC3)CC2=O)cc1 (centres unmarked),11.5%
18,CCOC(=O)C1C(=O)NC(c2ccccc2)=NC1c1ccc(Cl)cc1 (centres unmarked),-5.94%
19,CC(=O)c1cc(CC=C(C)C)c(O)c(CC=C(C)C)c1O,9.26%
20,CCOc1ccc(/C=N/N2CCN(Cc3ccccc3)CC2)cc1,4.19%
